Assay results: PubChem BioAssay AID624353 (The Scripps Research Institute Molecular Screening Center, 2012)
For part of its entries the source gives two or more results. This is not the full list of results. There may be further records.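 Rule for the calls: active = insulin-degrading enzyme inhibitors with IC50 at or below 10 µM; inactive = the rest.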 Values that stand side by side are repeated measurements in other runs, samples, wells, individuals or studies. A tag in brackets gives the origin of a value. Letters hold for one entry only.

Target: Insulin-degrading enzyme (Homo sapiens) (UniProt P14735)
Test: inhibition of recombinant WT IDE Abeta cleavage – biochemical, fluorescence polarization, FAbetaB substrate, round 2, counter-screen for IDE inhibitor project, late-stage follow-up (AID 624353)
Method in brief: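 material = recombinant wild-type insulin-degrading enzyme (IDE), purified enzyme | amount = 1 nM IDE | buffer or medium = HEPES, pH 7.4 | reagent = 100 nM fluorescein-Aβ-biotin substrate | times = reaction at room temperature | detection = fluorescence polarization, ex 485 nm, em 525 nm | controls = DMSO-only wells as low control, IDE inhibitor Ii1 as high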

Sequence of UniProt P14735 (P14735 whole entry, looked up): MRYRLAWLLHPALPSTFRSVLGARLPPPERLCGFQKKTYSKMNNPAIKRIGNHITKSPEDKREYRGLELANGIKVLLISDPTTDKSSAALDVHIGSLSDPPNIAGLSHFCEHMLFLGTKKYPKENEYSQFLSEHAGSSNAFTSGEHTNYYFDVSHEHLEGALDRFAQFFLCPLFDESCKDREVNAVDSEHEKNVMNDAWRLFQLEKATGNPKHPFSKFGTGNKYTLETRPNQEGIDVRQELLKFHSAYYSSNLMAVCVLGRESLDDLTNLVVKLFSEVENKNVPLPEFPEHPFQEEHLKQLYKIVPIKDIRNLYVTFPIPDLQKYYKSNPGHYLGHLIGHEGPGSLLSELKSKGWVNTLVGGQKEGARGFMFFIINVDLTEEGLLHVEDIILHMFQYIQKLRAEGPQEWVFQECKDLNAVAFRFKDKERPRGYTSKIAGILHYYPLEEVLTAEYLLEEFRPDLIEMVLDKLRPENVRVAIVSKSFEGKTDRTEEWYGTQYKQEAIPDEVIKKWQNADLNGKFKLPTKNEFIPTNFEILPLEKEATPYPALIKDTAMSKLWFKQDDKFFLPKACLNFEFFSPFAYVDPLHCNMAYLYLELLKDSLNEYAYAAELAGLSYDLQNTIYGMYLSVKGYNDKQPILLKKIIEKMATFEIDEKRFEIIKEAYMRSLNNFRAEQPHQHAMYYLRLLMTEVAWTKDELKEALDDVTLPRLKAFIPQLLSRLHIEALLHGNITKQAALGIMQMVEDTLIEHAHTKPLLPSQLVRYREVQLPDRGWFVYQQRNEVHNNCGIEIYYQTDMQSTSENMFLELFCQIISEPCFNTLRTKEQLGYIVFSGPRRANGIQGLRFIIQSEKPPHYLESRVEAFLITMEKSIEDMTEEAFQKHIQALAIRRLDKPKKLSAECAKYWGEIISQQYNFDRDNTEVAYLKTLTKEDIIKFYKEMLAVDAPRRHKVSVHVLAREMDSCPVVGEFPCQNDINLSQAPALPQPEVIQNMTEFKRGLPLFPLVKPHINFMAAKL

COc1ccc(C(=O)N2CCN(C(=O)C3COc4ccccc4O3)CC2)cc1 (stereo unspecified)
IC50: inactive [sample A] and inactive: > 33 µM [sample B]
